Data on three molecules can be found in publication PMC3740237.

Results are given in words; binding and its absence hold for the method and conditions named. Some binding calls cover weakened binding; strength is not graded here. Tags and fused reporters may be left off the sequences shown.

Assay [1] concerns the target T1, JAM-C extracellular region fused to EGFP, GPI-anchored on CHO cells (UniProt Q9BX67).
T1 sequence (chain, GPI anchor at the C-terminus (GPI signal of TRAIL receptor 3)): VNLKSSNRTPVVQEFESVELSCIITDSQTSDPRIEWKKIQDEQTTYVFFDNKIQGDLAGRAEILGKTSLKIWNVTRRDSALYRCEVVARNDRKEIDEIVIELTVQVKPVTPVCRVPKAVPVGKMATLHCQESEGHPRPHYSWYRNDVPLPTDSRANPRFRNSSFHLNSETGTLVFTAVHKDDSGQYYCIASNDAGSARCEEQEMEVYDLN
Put plainly: flow cytometry on cells; cell-to-cell binding: CHO cells expressing each adhesion molecule labelled with DiI or DiD, mixed 1:1, pelleted, on ice 1 h; doublets of one cell of each type detected by dual fluorescence; Ca2+- and Mg2+-free media. Background: A flow cytometer gives signals particle by particle.

Assay [2] has as its target T2, biotinylated soluble JAM-B–EGFP fusion protein (UniProt P57087).
T2 sequence (chain, biotin on the Avitag (BirA)): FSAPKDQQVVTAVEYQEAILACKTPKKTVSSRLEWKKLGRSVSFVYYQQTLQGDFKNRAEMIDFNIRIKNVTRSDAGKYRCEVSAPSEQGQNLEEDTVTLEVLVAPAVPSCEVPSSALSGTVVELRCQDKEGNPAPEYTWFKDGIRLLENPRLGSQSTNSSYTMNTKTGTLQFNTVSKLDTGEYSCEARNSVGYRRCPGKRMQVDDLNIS
Kind of assay: SPR; Biacore X; biotin-JAM-B-EGFP or biotin-JAM-C-EGFP (8 ug/ml) immobilised on streptavidin chip; analyte JAM precomplexed with anti-GFP Ab (1:10 molar ratio, 1 h room temperature), injected 12 min, buffer 6 min; PBS with 0.005% Tween 20, pH 7.0; regeneration with 100 mM HCl.

In assay [3] the target is T3, biotinylated soluble JAM-C–EGFP fusion protein (UniProt Q9BX67).
T3 sequence (chain, biotin on the Avitag (BirA)): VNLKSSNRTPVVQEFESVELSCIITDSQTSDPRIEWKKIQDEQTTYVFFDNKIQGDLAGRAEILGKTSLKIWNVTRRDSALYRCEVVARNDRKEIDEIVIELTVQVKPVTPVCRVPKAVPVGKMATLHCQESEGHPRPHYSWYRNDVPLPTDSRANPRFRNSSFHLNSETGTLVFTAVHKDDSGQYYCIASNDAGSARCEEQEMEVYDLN
Described as above.

Assay [4] has as its target T1, JAM-C extracellular region fused to EGFP, GPI-anchored on CHO cells. Put plainly: flow cytometry on cells; protein-to-cell binding: wild-type or transfected CHO cells with 0.8 ug/ml biotinylated protein (legend: 1 ug/ml) for 1 h on ice, streptavidin-APC, FACSCalibur.
Assay [5] deals with T4, JAM-B extracellular region fused to EGFP, GPI-anchored on CHO cells (UniProt P57087).
T4 sequence (chain, GPI anchor at the C-terminus (GPI signal of TRAIL receptor 3)): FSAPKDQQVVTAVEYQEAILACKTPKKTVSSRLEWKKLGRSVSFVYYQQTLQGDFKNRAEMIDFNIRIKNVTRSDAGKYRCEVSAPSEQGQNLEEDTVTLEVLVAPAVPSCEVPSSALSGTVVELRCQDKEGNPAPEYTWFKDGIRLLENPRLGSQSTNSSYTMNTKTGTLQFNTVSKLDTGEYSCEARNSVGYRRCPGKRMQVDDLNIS
The assay is described as above.

B1: JAM-B extracellular region fused to EGFP, GPI-anchored on CHO cells (receptor, UniProt P57087 29-238)
chain: FSAPKDQQVVTAVEYQEAILACKTPKKTVSSRLEWKKLGRSVSFVYYQQTLQGDFKNRAEMIDFNIRIKNVTRSDAGKYRCEVSAPSEQGQNLEEDTVTLEVLVAPAVPSCEVPSSALSGTVVELRCQDKEGNPAPEYTWFKDGIRLLENPRLGSQSTNSSYTMNTKTGTLQFNTVSKLDTGEYSCEARNSVGYRRCPGKRMQVDDLNIS
modifications: GPI anchor at the C-terminus (GPI signal of TRAIL receptor 3)
Consider B1, for which the binding entry in assay [1] is recorded as “binds”.

B2: biotinylated soluble JAM-B–EGFP fusion protein (domain or fragment, UniProt P57087 29-238)
chain: FSAPKDQQVVTAVEYQEAILACKTPKKTVSSRLEWKKLGRSVSFVYYQQTLQGDFKNRAEMIDFNIRIKNVTRSDAGKYRCEVSAPSEQGQNLEEDTVTLEVLVAPAVPSCEVPSSALSGTVVELRCQDKEGNPAPEYTWFKDGIRLLENPRLGSQSTNSSYTMNTKTGTLQFNTVSKLDTGEYSCEARNSVGYRRCPGKRMQVDDLNIS
modifications: biotin on the Avitag (BirA)
For B2, the binding result is “no binding” in assay [2], “binds” in assay [3] and “binds” in assay [4].

B3: biotinylated soluble JAM-C–EGFP fusion protein (domain or fragment, UniProt Q9BX67 32-241)
chain: VNLKSSNRTPVVQEFESVELSCIITDSQTSDPRIEWKKIQDEQTTYVFFDNKIQGDLAGRAEILGKTSLKIWNVTRRDSALYRCEVVARNDRKEIDEIVIELTVQVKPVTPVCRVPKAVPVGKMATLHCQESEGHPRPHYSWYRNDVPLPTDSRANPRFRNSSFHLNSETGTLVFTAVHKDDSGQYYCIASNDAGSARCEEQEMEVYDLN
modifications: biotin on the Avitag (BirA)
Consider B3, for which the binding entry in assay [2] is reported as “binds”; in assay [3], “no binding”; in assay [5] it was “binds”.
